Hit rate of the full screen: of about 110,000 compounds, about 230 (0.21%) showed an effect of 50% or more. Some of the results follow.
Molecular target: DPAP1 (Plasmodium falciparum, UniProt Q8IIJ9)
Test: primary screen, percent inhibition; read by cleavage of a fluorogenic dipeptide substrate; higher = more effect of the substance
Set-up: species or system P. falciparum D10 trophozoite lysates; single well
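Further: 30 min substrate incubation versus DMSO and 10 µM JCP410 controls.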

Sequence of DPAP1 (Q8IIJ9 whole entry, looked up): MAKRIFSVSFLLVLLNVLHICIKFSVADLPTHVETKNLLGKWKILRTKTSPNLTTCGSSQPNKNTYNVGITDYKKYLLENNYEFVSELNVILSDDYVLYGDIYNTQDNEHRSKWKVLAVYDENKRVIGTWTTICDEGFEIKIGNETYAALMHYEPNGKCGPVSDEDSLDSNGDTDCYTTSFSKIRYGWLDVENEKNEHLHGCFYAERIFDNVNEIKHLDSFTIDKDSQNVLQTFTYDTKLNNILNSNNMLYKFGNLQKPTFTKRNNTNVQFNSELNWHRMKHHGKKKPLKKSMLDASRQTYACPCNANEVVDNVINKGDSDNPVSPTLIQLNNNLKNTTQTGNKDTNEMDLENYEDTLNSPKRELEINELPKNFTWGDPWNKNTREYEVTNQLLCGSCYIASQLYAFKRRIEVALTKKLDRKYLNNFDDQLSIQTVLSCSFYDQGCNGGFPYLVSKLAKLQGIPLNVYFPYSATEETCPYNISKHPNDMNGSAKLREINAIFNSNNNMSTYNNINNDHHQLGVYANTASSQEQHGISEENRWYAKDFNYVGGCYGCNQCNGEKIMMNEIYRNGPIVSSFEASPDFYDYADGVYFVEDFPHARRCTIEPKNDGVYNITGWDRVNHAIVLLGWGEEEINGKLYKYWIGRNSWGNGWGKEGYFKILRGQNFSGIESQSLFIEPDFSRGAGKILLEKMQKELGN

| Compound | % Inhibition @ 10 uM [%] |
| --- | --- |
| Cc1ccc(CNCc2c(C(=O)O)c(C)n(Cc3ccccc3F)c2C)o1 | -3.67 |
| C=C(NC(C)=O)C(=O)c1ccc([N+](=O)[O-])cc1 | 2.38 |
| CC1CN(C(=O)c2ccccc2)C(C)CN1C(=O)c1ccccc1 (stereo not shown) | -6.05 |
| CCOC(=O)N1CCN(C(=O)CCCc2nnc3n(CCC(C)C)c(=O)c4sccc4n23)CC1 | -6.08 |
| C[S+](O)c1ccc(OCC(=O)O)cc1 (stereo not shown) | -4.02 |
| O=S(=O)(NC1CCCCC1)c1ccc2c(c1)OCCO2 | 0.147 |
| CC1CCN(c2c(S(=O)(=O)c3ccccc3)cnc3cc4c(cc23)OCCO4)CC1 | -4.17 |
| Cc1noc2ncnc(NCc3ccc(F)cc3)c12 | -4.4 |
| Nc1ccc2oc(-c3ccc(Cl)cc3)nc2c1 | 1.13 |
| COc1ccccc1C(=O)N/C(=C\c1ccc2c(c1)OCO2)C(=O)OC(C)C | -0.0626 |
| COc1ccc(OC)c(CNC(=O)Cn2cnc3onc(-c4ccc(F)cc4)c3c2=O)c1 | -3.05 |
| CSc1ccccc1NC(=O)CN(C)S(=O)(=O)c1ccccc1 | 0.658 |
| COc1cc(OC)cc(C(=O)Nc2nc(C)c(C)s2)c1 | -1.99 |
| CCCCCCn1c(=O)c(C(=O)Nc2cc(C)ccn2)c(O)c2ccccc21 | 5.31 |
| COc1ccc2nc(C)c(C(=O)OCCN(C)C)cc2c1 | -4.62 |
| COc1cccc(-c2noc(-c3cc4cc(Br)ccc4oc3=O)n2)c1OC | 6.05 |
| CCOc1cc2c(cc1OC)C(c1ccc(F)cc1)NCC2 (stereo not shown) | 0.83 |
| CC(C)C1=CC2=C(CC(C)(C)CC2=O)OC1N(C)C (stereo not shown) | -7.27 |
| CC(C)(C)N1C(=O)c2ccc(C(=O)Nc3nccs3)cc2C1=O | 2.01 |
| O=C1c2nccnc2C(O)N1c1ccc(Br)cn1 (stereo not shown) | -1.08 |
| N#Cc1c2n(c3c(=O)n(Cc4ccc(Cl)cc4)cnc13)CCCC2 | 7.1 |
| Cc1c(C#N)sc2nc(-c3ccccc3)nc(N)c12 | 2.16 |
| CCC(C)N(CCNC(=O)c1cc2c(s1)-c1ccccc1S(=O)(=O)C2)Cc1ccco1 (stereo not shown) | 2.57 |
| Cc1ccsc1CCNc1c(-c2ccc(C(C)C)cc2)c(=O)c1=O | 0.867 |
| CC(Cc1ccccc1)[N+]1=NO/C(=N/C(N)=O)C1 (stereo not shown) | 2.35 |
| O=C(CSc1nnc(-c2ccc3c(c2)OCCO3)o1)NC1CCCCC1 | 1.8 |
| COc1ccc(-c2cc(C(F)(F)F)n3nc(C(=O)N4CCCCCC4)cc3n2)cc1 | 1.81 |
| Cc1coc(NC(=O)c2sc3nc(-c4ccncc4)cc(C(F)(F)F)c3c2N)n1 | -1.1 |

Reference: publication PMC6919601, “Identification of Plasmodium dipeptidyl aminopeptidase allosteric inhibitors by high throughput screening” (PLoS ONE, 2019)
